The values that follow come from publication PMC3511050.

The experiment deals with T1, IscU (E. coli), P0ACD4.
T1 chain: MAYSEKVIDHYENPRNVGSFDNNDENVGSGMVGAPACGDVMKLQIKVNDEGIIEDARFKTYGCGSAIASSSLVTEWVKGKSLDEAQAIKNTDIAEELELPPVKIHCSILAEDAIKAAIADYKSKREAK
The experiment in a line: cross-linking. The note with it: remark: other sources report otherwise.

B1: IscU, P0ACD4 1-128 (natural protein)
chain: MAYSEKVIDHYENPRNVGSFDNNDENVGSGMVGAPACGDVMKLQIKVNDEGIIEDARFKTYGCGSAIASSSLVTEWVKGKSLDEAQAIKNTDIAEELELPPVKIHCSILAEDAIKAAIADYKSKREAK
The molecule B1 displayed a percent of total IscU as disulfide-bonded homodimer (after H2O2) of 28%; a percent of total IscU as disulfide-bonded homodimer (samples with IscS and IscU) of 39%; a percent of total IscU as disulfide-bonded homodimer (without H2O2) of 12%; a stoichiometry N of 2.

The stoichiometry N is a count of units in the complex or per binding partner.
